Experimental data taken from US20240199692A1 (priority 2019, published 2024).
For some of these results: Not every detail of the peptide structures is certain; ends, links or a residue may be inferred. At least one structure is not confirmed: it was looked up by name or label, or the drawing left a doubt.

target: T1, MMP2 (Homo sapiens, UniProt P08253); experiment: Inhibitory effects on human MMP2 (Method 1), enzyme assay with MOCAc-Pro-Leu-Gly-Leu-A2pr(Dnp)-Ala-Arg-NH2 substrate, 96-well; type: biochemical; details: Test Example No. 1-1 (Method 1, 96-well microplate)
T1 sequence (P08253 110-660): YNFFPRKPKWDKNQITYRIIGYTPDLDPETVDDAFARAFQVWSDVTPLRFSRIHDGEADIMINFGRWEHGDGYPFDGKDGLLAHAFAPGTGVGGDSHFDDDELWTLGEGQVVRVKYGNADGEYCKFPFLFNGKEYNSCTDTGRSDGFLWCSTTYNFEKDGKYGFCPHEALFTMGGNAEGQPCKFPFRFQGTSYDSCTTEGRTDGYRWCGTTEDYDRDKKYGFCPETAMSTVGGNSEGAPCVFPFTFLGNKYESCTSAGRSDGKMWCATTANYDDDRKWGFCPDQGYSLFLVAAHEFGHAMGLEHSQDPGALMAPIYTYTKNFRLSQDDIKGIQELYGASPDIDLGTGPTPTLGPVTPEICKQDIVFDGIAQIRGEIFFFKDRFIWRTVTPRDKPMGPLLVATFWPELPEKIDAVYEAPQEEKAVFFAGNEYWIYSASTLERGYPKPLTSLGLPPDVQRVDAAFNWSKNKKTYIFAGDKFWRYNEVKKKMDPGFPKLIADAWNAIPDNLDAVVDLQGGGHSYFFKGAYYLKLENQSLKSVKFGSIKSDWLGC
Experimental: In a reaction solution [50 mmol/L Tris-HCl (pH 7.5), 150 mmol/L NaCl, 10 mmol/L CaCl2, 0.05% Brij L23], 100 μg/mL human recombinant MMP2 enzyme and 1 mmol/L 4-Aminophenylmercuric acetate were mixed together, and reacted at 37° C. for 60 minutes. The human MMP2 activated through the reaction was poured into a 96-well microplate to reach a final concentration of 0.7 or 7 ng/mL.

Row | SMILES | IC50 [nM]
1 | CC(C)C[C@H](NC(=O)[C@@H]1C[C@H](N)CN1C(=O)C[C@@H](NS(=O)(=O)c1ccc(NC(=O)c2ccc(C(N)=O)cc2)cc1)C(=O)O)C(=O)N(C)[C@@H](CCC(=O)O)C(=O)NCCCCC(N)=O [Compound 3] | 0.25

target: T1, MMP2; experiment: Inhibitory effects on human MMP2 (Method 2), enzyme assay with MOCAc-Pro-Leu-Gly-Leu-A2pr(Dnp)-Ala-Arg-NH2 substrate, 384-well; type: biochemical; details: Test Example No. 1-2 (Method 2, 384-well microplate)

Row | SMILES | IC50 [nM]
2 | CC(C)C[C@H](NC(=O)[C@@H]1C[C@H](N)CN1C(=O)CC[C@@H](NS(=O)(=O)c1ccc(NC(=O)c2ccc(C(N)=O)cc2)cc1)C(=O)O)C(=O)N(C)[C@@H](CC(=O)O)C(=O)N1CCC[C@@H]1C(N)=O [Compound 19] | 0.148
3 | CC(C)C[C@H](NC(=O)[C@@H]1C[C@H](N)CN1C(=O)CC[C@@H](NS(=O)(=O)c1ccc(NC(=O)c2ccc(C(N)=O)cc2)cc1)C(=O)O)C(=O)N(C)[C@@H](CCC(=O)O)C(=O)N1CCC[C@H]1C(N)=O [Compound 21] | 0.101
4 | CC(C)C[C@H](NC(=O)[C@@H]1C[C@H](N)CN1C(=O)CC[C@@H](NS(=O)(=O)c1ccc(NC(=O)c2ccc(C(N)=O)cc2)cc1)C(=O)O)C(=O)N(C)[C@@H](CCC(=O)O)C(=O)NCCC(N)=O [Compound 22] | 0.109
5 | CC(C)C[C@H](NC(=O)[C@@H]1C[C@H](N)CN1C(=O)CC[C@@H](NS(=O)(=O)c1ccc(NC(=O)c2ccc(C(N)=O)cc2)cc1)C(=O)O)C(=O)N(C)[C@@H](CCC(=O)O)C(=O)NCCCC(N)=O [Compound 23] | 0.0923
6 | CC(C)C[C@H](NC(=O)[C@@H]1C[C@H](N)CN1C(=O)CC[C@@H](NS(=O)(=O)c1ccc(NC(=O)c2ccc(C(N)=O)cc2)cc1)C(=O)O)C(=O)N(C)[C@@H](CCC(=O)O)C(=O)NCCCCCC(N)=O [Compound 24] | 0.105
7 | CC(C)C[C@H](NC(=O)[C@@H]1C[C@H](N)CN1C(=O)CC[C@@H](NS(=O)(=O)c1ccc(NC(=O)c2ccc(C(N)=O)cc2)cc1)C(=O)O)C(=O)N(C)[C@@H](CCC(=O)O)C(=O)N1CCC[C@@H]1C(N)=O [Compound 25] | 0.178
8 | CC(C)C[C@H](NC(=O)[C@@H]1C[C@H](N)CN1C(=O)CC[C@@H](NS(=O)(=O)c1ccc(NC(=O)c2ccc(C(N)=O)cc2)cc1)C(=O)O)C(=O)N(C)[C@@H](CCC(=O)O)C(=O)N[C@@H](CCCCN)C(N)=O [Compound 26] | 0.151
9 | CC(C)C[C@H](NC(=O)[C@@H]1C[C@H](N)CN1C(=O)CC[C@@H](NS(=O)(=O)c1ccc(NC(=O)c2ccc(C(N)=O)cc2)cc1)C(=O)O)C(=O)N(C)[C@@H](CCC(=O)O)C(=O)N[C@H](CCCCN)C(N)=O [Compound 27] | 0.152
10 | CC(C)C[C@H](NC(=O)[C@@H]1C[C@H](N)CN1C(=O)CC[C@@H](NS(=O)(=O)c1ccc(NC(=O)c2ccc(C(N)=O)cc2)cc1)C(=O)O)C(=O)N(C)[C@@H](CCC(=O)O)C(=O)N[C@@H](CCCNC(=N)N)C(N)=O [Compound 28] | 0.136
11 | CC(C)C[C@H](NC(=O)[C@@H]1C[C@H](N)CN1C(=O)CC[C@@H](NS(=O)(=O)c1ccc(NC(=O)c2ccc(C(N)=O)cc2)cc1)C(=O)O)C(=O)N(C)[C@@H](CCC(=O)O)C(N)=O [Compound 30] | 0.107
12 | CC(C)C[C@H](NC(=O)[C@@H]1C[C@H](N)CN1C(=O)CC[C@@H](NS(=O)(=O)c1ccc(NC(=O)c2ccc(C(N)=O)cc2)cc1)C(=O)O)C(N)=O [Compound 31] | 0.199
13 | CC(C)C[C@H](NC(=O)[C@@H]1C[C@H](N)CN1C(=O)CC[C@@H](NS(=O)(=O)c1ccc(NC(=O)c2ccc(C(N)=O)cc2)cc1)C(=O)O)C(=O)N(C)[C@@H](CCC(=O)O)C(=O)NCCCCC(=O)N1CCC[C@H]1C(N)=O [Compound 32] | 0.0996
14 | CC(C)C[C@H](NC(=O)[C@@H]1C[C@H](N)CN1C(=O)CC[C@@H](NS(=O)(=O)c1ccc(NC(=O)c2ccc(C(N)=O)cc2)cc1)C(=O)O)C(=O)N(C)[C@@H](CCC(=O)O)C(=O)NCCCCC(=O)N[C@@H](CCCCN)C(N)=O [Compound 33] | 0.144
15 | CC(C)C[C@H](NC(=O)[C@@H]1C[C@H](N)CN1C(=O)CC[C@@H](NS(=O)(=O)c1ccc(NC(=O)c2ccc(C(N)=O)cc2)cc1)C(=O)O)C(=O)N(C)[C@@H](CCC(=O)O)C(=O)NCCCCC(=O)N[C@H](CCCCN)C(N)=O [Compound 34] | 0.13
16 | CC(C)C[C@H](NC(=O)[C@@H]1C[C@H](N)CN1C(=O)CC[C@@H](NS(=O)(=O)c1ccc(NC(=O)c2ccc(C(N)=O)cc2)cc1)C(=O)O)C(=O)N(C)[C@@H](CCC(=O)O)C(=O)NCCCCC(=O)N[C@@H](CCCNC(=N)N)C(N)=O [Compound 35] | 0.147
17 | CC(C)C[C@H](NC(=O)[C@@H]1C[C@H](N)CN1C(=O)CC[C@@H](NS(=O)(=O)c1ccc(NC(=O)c2ccc(C(N)=O)cc2)cc1)C(=O)O)C(=O)N(C)[C@@H](CCC(=O)O)C(=O)NCCCCC(=O)N[C@H](CCCNC(=N)N)C(N)=O [Compound 36] | 0.152
18 | CC(C)C[C@H](NC(=O)[C@@H]1C[C@H](N)CN1C(=O)CC[C@@H](NS(=O)(=O)c1ccc(NC(=O)c2ccc(C(N)=O)cc2)cc1)C(=O)O)C(=O)N(C)[C@@H](CCC(=O)O)C(=O)NCCCCC(=O)N[C@H](CCCCN)C(=O)N[C@H](CCCCN)C(N)=O [Compound 37] | 0.178
19 | CC[C@H](C)[C@@H](C(=O)NCCCCC(N)=O)N(C)C(=O)[C@H](CC(C)C)NC(=O)[C@@H]1CCN1C(=O)[C@H](CC(=O)O)NC(=O)[C@H](NC(=O)CCCCNC(=O)c1ccc(Oc2ccc(C(N)=O)cc2)cc1)[C@H](C)O [Compound 585] | 1.2
20 | CC[C@H](C)[C@@H](C(=O)N1CCC[C@H]1CC(N)=O)N(C)C(=O)[C@H](CC(C)C)NC(=O)[C@@H]1C[C@H](N)CN1C(=O)C[C@@H](NS(=O)(=O)c1ccc(-c2ccccc2)cc1)C(=O)O [Compound 621] | 0.0867
21 | COc1ccc(-c2ccc(S(=O)(=O)N[C@H](CCC(=O)N3C[C@@H](N)C[C@H]3C(=O)N[C@@H](CC(C)C)C(=O)N(C)[C@@H](CCC(=O)O)C(N)=O)C(=O)O)cc2)cc1 [Compound 633] | 0.135

same assay, conditions: Test Example No. 1-2 (Method 2, 384-well)

Row | SMILES | IC50 [nM]
22 | CC(C)C[C@H](NC(=O)[C@@H]1C[C@H](N)CN1C(=O)CC[C@@H](NS(=O)(=O)c1ccc(NC(=O)c2ccc(C(N)=O)cc2)cc1)C(=O)O)C(=O)NCCCCCC(N)=O [Compound 863] | 0.118
23 | CC(C)C[C@H](NC(=O)[C@@H]1C[C@H](N)CN1C(=O)CC[C@@H](NS(=O)(=O)c1ccc(NC(=O)c2ccc(C(N)=O)cc2)cc1)C(=O)O)C(=O)N(C)[C@@H](CO)C(N)=O [Compound 868] | 0.143
24 | CC(C)C[C@H](NC(=O)[C@@H]1C[C@H](N)CN1C(=O)CC[C@@H](NS(=O)(=O)c1ccc(NC(=O)c2ccc(C(N)=O)cc2)cc1)C(=O)O)C(=O)N(C)[C@@H](Cc1ccccc1)C(N)=O [Compound 870] | 0.124
25 | CC[C@H](C)[C@@H](C(N)=O)N(C)C(=O)[C@H](CC(C)C)NC(=O)[C@@H]1C[C@H](N)CN1C(=O)CC[C@@H](NS(=O)(=O)c1ccc(NC(=O)c2ccc(C(N)=O)cc2)cc1)C(=O)O [Compound 872] | 0.123
26 | CC(C)C[C@H](NC(=O)[C@@H]1C[C@H](N)CN1C(=O)CC[C@@H](NS(=O)(=O)c1ccc(NC(=O)c2ccc(C(N)=O)cc2)cc1)C(=O)O)C(=O)N(C)[C@@H](CC(C)C)C(N)=O [Compound 874] | 0.133
27 | CC(C)C[C@H](NC(=O)[C@@H]1C[C@H](N)CN1C(=O)CC[C@@H](NS(=O)(=O)c1ccc(NC(=O)c2ccc(C(N)=O)cc2)cc1)C(=O)O)C(=O)NCC(N)=O [Compound 877] | 0.136
28 | CC(C)C[C@H](NC(=O)[C@@H]1C[C@H](N)CN1C(=O)CC[C@@H](NS(=O)(=O)c1ccc(NC(=O)c2ccc(C(N)=O)cc2)cc1)C(=O)O)C(=O)N[C@H](Cc1ccc(O)cc1)C(N)=O [Compound 881] | 0.106
29 | CC(C)C[C@H](NC(=O)[C@@H]1C[C@H](N)CN1C(=O)CC[C@@H](NS(=O)(=O)c1ccc(NC(=O)c2ccc(C(N)=O)cc2)cc1)C(=O)O)C(=O)N[C@H](Cc1ccccc1)C(N)=O [Compound 882] | 0.0996
30 | CC(C)C[C@H](NC(=O)[C@@H]1C[C@H](N)CN1C(=O)CC[C@@H](NS(=O)(=O)c1ccc(NC(=O)c2ccc(C(N)=O)cc2)cc1)C(=O)O)C(=O)N[C@@H](C(N)=O)[C@H](C)O [Compound 884] | 0.153
31 | CC(C)C[C@H](NC(=O)[C@@H]1C[C@H](N)CN1C(=O)CC[C@@H](NS(=O)(=O)c1ccc(NC(=O)c2ccc(C(N)=O)cc2)cc1)C(=O)O)C(=O)N(C)[C@@H](CCCNC(=N)N)C(N)=O [Compound 885] | 0.128
32 | CC(C)[C@H](NC(=O)[C@@H]1C[C@H](N)CN1C(=O)CC[C@@H](NS(=O)(=O)c1ccc(NC(=O)c2ccc(C(N)=O)cc2)cc1)C(=O)O)C(=O)N(C)[C@@H](CCC(=O)O)C(N)=O [Compound 886] | 1.09

target: human MMP12 (Homo sapiens, UniProt P39900); experiment: Inhibitory effects on human MMP12, enzyme assay; type: biochemical; details: Test Example 7
Sequence (P39900 106-470): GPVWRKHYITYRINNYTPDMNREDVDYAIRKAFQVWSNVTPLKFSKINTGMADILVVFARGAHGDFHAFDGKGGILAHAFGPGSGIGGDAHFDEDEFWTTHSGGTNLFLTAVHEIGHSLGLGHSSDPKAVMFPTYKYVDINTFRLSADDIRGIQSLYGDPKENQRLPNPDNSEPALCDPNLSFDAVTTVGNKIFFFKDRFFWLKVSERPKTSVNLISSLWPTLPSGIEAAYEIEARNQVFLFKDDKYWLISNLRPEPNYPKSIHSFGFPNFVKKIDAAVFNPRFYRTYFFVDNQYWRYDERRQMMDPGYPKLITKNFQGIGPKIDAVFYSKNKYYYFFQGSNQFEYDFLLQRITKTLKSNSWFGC

Row | SMILES | IC50 [nM]
33 | CC(C)C[C@H](NC(=O)[C@@H]1C[C@H](N)CN1C(=O)C[C@@H](NS(=O)(=O)c1ccc(NC(=O)c2ccc(C(N)=O)cc2)cc1)C(=O)O)C(=O)N(C)[C@@H](CCC(=O)O)C(=O)NCCCCC(N)=O [Compound 3] | 502

target: human MMP13 (Homo sapiens, UniProt P45452); experiment: Inhibitory effects on human MMP13, enzyme assay; type: biochemical; details: Test Example 8
Experimental: The human MMP13 activated through the reaction was poured into a 96-well microplate to reach a final concentration of 5 ng/mL. […] Then, MOCAc-[…] was added to reach a final concentration of 6 μmol/L, and enzymatic reaction was initiated.

Row | SMILES | IC50 [nM]
34 | CC(C)C[C@H](NC(=O)[C@@H]1C[C@H](N)CN1C(=O)C[C@@H](NS(=O)(=O)c1ccc(NC(=O)c2ccc(C(N)=O)cc2)cc1)C(=O)O)C(=O)N(C)[C@@H](CCC(=O)O)C(=O)NCCCCC(N)=O [Compound 3] | 732
